Reference: patent US20250382268A1, “METHODS AND COMPOSITIONS FOR SELECTIVELY INHIBITING PATHOGENIC MICROBES” (priority 2019, published 2025)
≈ marks a conversion by molar mass, not a printed value.

System: Staphylococcus aureus
Assay: microbe, parasite or virus in culture
Conditions: VRSA, read-out: Staphylococcus aureus MIC, VRSA NR-49120

SMILES | MIC [µg/mL]
FC(F)(F)c1ccc2[nH]cc(Sc3ccccc3Br)c2c1 [Compound 174AX, 3-((2-bromophenyl)thio)-5-(trifluoromethyl)-1H-indole] | 1 (≈ 2.69 µM)
Cc1ccccc1Sc1c[nH]c2ccc(Br)cc12 [Compound 174AY, 5-bromo-3-(o-tolylthio)-1H-indole] | 2 (≈ 6.28 µM)
FC(F)(F)c1ccccc1Sc1c[nH]c2ccc(Br)cc12 [Compound 174AV, 5-bromo-3-((2-(trifluoromethyl)phenyl)thio)-1H-indole] | 2 (≈ 5.37 µM)
OCc1ccccc1Sc1c[nH]c2ccc(Br)cc12 [Compound 174AT, (2-((5-bromo-1H-indol-3-yl)thio)phenyl)methanol] | 16 (≈ 47.9 µM)
